± gives the standard deviation of the averaged measurements. Growth of baker's yeast expressing single-residue variants of Pneumocystis jirovecii dihydrofolate reductase in 8.8 or 44 µM methotrexate (about 75% and 90% inhibition of the wild type). Selection coefficient per generation; 0 = like wild type, above 0 = less sensitive, below 0 = more sensitive or loss of function. No active / inactive call per row; the paper calls resistant above 0.220 (8.8 µM) or 0.243 (44 µM) together with a significance test. At 44 µM about 15% of codons end with one read or none, so the lowest values are floors (replicate rank correlation 0.74; 0.94 at 8.8 µM).
B1: UniProt A0EPZ9; numbered along this chain (parent)
chain: MDWQKSLTLIVALTLSRGIGLKNDLPWKLKSDMMFFSRVTSGLLVTRSTGQMNVVLMGRKTWESLPAHSRPLKNRINVVISRQEVLDLGGGAYHARSLDDALALLSQIYDSTSKIQLNRVFVIGGGELCKAAMEHSRLNRIIATVIHNEVDCDVFFPIDFRSSQSCLPWRKQDHSVLEAWVGSKVPQGKINENGFIYEFEMWIRDI

Variants of: B1
Assay: selection coefficient against synonymous wild-type codons (log2 per generation); higher = faster growth than wild type
Conditions: with Saccharomyces cerevisiae carrying the variant on a plasmid
Protocol: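 Pooled growth of yeast carrying single-residue variants of P. jirovecii dihydrofolate reductase (own DFR1 gene intact), two passages at 30 °C, three cultures, sequenced before and after. Codons with under 15 starting reads are left out; codons of one change are averaged.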

Question: How did the “selection coefficient against synonymous wild-type codons (log2)” value (shortened to “selection coefficient … (log2)”) (methotrexate 8.8 µM) turn out when MDWQKSLTLIVALTLSRGIGLKNDLPWKLKSDMMFFSRVTSGLLVTRSTGQMNVVLMGRKTWESLPAHSRPLKNRINVVISRQEVLDLGGGAYHARSLDDALALLSQIYDSTSKIQLNRVFVIGGGELCKAAMEHSRLNRIIATVIHNEVDCDVFFPIDFRSSQSCLPWRKQDHSVLEWWVGSKVPQGKINENGFIYEFEMWIRDI [A179W] was run?
Answer: -0.316 ± 0.052

Question: What about the “selection coefficient … (log2)” value (methotrexate 44 µM) of the same variant?
Answer: -0.195 ± 0.14

Question: For MDWQKSLTLIVALTLSRGIGLKNDLPWKLKSDMMFFSRVTSGLLVTRSTGQMNVVLMGRKTWESLPAHSRPLKNRINVVISRQEVLDLGGGAYHARSLDDALALLSQIYDSTSKIQLNRVFVIGGGELCKAAMEHSRLNRIIATVIHNEVDCDVFFPIDFRSSQSCLPWRKQDHSVLEYWVGSKVPQGKINENGFIYEFEMWIRDI [A179Y], which “selection coefficient … (log2)” value (methotrexate 8.8 µM) is on record?
Answer: -0.263 ± 0.058

Question: And the “selection coefficient … (log2)” value (methotrexate 44 µM)?
Answer: -0.328 ± 0.21

Question: How did the “selection coefficient … (log2)” value (methotrexate 8.8 µM) turn out when MDWQKSLTLIVALTLSRGIGLKNDLPWKLKSDMMFFSRVTSGLLVTRSTGQMNVVLMGRKTWESLPAHSRPLKNRINVVISRQEVLDLGGGAYHARSLDDALALLSQIYDSTSKIQLNRVFVIGGGELCKAAMEHSRLNRIIATVIHNEVDCDVFFPIDFRSSQSCLPWRKQDHSVLEAAVGSKVPQGKINENGFIYEFEMWIRDI [W180A] was run?
Answer: 0.176 ± 0.032

Question: What about the “selection coefficient … (log2)” value (methotrexate 44 µM) of the same variant?
Answer: 0.0178 ± 0.17

Question: MDWQKSLTLIVALTLSRGIGLKNDLPWKLKSDMMFFSRVTSGLLVTRSTGQMNVVLMGRKTWESLPAHSRPLKNRINVVISRQEVLDLGGGAYHARSLDDALALLSQIYDSTSKIQLNRVFVIGGGELCKAAMEHSRLNRIIATVIHNEVDCDVFFPIDFRSSQSCLPWRKQDHSVLEACVGSKVPQGKINENGFIYEFEMWIRDI [W180C] was tested. Which “selection coefficient … (log2)” value (methotrexate 8.8 µM) did it give?
Answer: 0.093 ± 0.1

Question: And the “selection coefficient … (log2)” value (methotrexate 44 µM)?
Answer: 0.0274 ± 0.048

Question: For MDWQKSLTLIVALTLSRGIGLKNDLPWKLKSDMMFFSRVTSGLLVTRSTGQMNVVLMGRKTWESLPAHSRPLKNRINVVISRQEVLDLGGGAYHARSLDDALALLSQIYDSTSKIQLNRVFVIGGGELCKAAMEHSRLNRIIATVIHNEVDCDVFFPIDFRSSQSCLPWRKQDHSVLEADVGSKVPQGKINENGFIYEFEMWIRDI [W180D], which “selection coefficient … (log2)” value (methotrexate 8.8 µM) is on record?
Answer: 0.149 ± 0.045

Question: What about the “selection coefficient … (log2)” value (methotrexate 44 µM) of the same variant?
Answer: 0.0655 ± 0.086

Question: For MDWQKSLTLIVALTLSRGIGLKNDLPWKLKSDMMFFSRVTSGLLVTRSTGQMNVVLMGRKTWESLPAHSRPLKNRINVVISRQEVLDLGGGAYHARSLDDALALLSQIYDSTSKIQLNRVFVIGGGELCKAAMEHSRLNRIIATVIHNEVDCDVFFPIDFRSSQSCLPWRKQDHSVLEAEVGSKVPQGKINENGFIYEFEMWIRDI [W180E], which “selection coefficient … (log2)” value (methotrexate 8.8 µM) is on record?
Answer: 0.269 ± 0.074

Question: And the “selection coefficient … (log2)” value (methotrexate 44 µM)?
Answer: 0.147 ± 0.12

Question: MDWQKSLTLIVALTLSRGIGLKNDLPWKLKSDMMFFSRVTSGLLVTRSTGQMNVVLMGRKTWESLPAHSRPLKNRINVVISRQEVLDLGGGAYHARSLDDALALLSQIYDSTSKIQLNRVFVIGGGELCKAAMEHSRLNRIIATVIHNEVDCDVFFPIDFRSSQSCLPWRKQDHSVLEAFVGSKVPQGKINENGFIYEFEMWIRDI [W180F] was tested. Which “selection coefficient … (log2)” value (methotrexate 8.8 µM) did it give?
Answer: 0.0341 ± 0.038

Question: And the “selection coefficient … (log2)” value (methotrexate 44 µM)?
Answer: -0.0509 ± 0.079

Question: Which “selection coefficient … (log2)” value (methotrexate 8.8 µM) does the source give for MDWQKSLTLIVALTLSRGIGLKNDLPWKLKSDMMFFSRVTSGLLVTRSTGQMNVVLMGRKTWESLPAHSRPLKNRINVVISRQEVLDLGGGAYHARSLDDALALLSQIYDSTSKIQLNRVFVIGGGELCKAAMEHSRLNRIIATVIHNEVDCDVFFPIDFRSSQSCLPWRKQDHSVLEAGVGSKVPQGKINENGFIYEFEMWIRDI [W180G] here?
Answer: -0.113 ± 0.052

Question: And the “selection coefficient … (log2)” value (methotrexate 44 µM)?
Answer: -0.193 ± 0.17

Source: the supplement of paper PMC11125491
